{"source": "PubChem BioAssay AID743255", "about": "(National Center for Advancing Translational Sciences (NCATS), 2014)", "note": "Out of some 390,000 compounds screened, about 910 (0.23%) were called active. Roughly 5% stayed inconclusive and do not appear here. The call rests on the fitted dose curve; in most records, active means well fitted inhibition curve with a large enough effect; inconclusive means small, poorly fitted or top-dose-only effect; inactive means no such curve, though single readings can be large or run the other way. The entries are a selection whose mix differs from that of the whole data set. On the % scale 0 is the no-effect control and ±100 the full control effect; potency means the concentration at half of the fitted maximal effect."}
{"biological_target": "Ubiquitin carboxyl-terminal hydrolase 1 (Homo sapiens) (UniProt O94782)", "sequence (O94782 whole entry, looked up)": "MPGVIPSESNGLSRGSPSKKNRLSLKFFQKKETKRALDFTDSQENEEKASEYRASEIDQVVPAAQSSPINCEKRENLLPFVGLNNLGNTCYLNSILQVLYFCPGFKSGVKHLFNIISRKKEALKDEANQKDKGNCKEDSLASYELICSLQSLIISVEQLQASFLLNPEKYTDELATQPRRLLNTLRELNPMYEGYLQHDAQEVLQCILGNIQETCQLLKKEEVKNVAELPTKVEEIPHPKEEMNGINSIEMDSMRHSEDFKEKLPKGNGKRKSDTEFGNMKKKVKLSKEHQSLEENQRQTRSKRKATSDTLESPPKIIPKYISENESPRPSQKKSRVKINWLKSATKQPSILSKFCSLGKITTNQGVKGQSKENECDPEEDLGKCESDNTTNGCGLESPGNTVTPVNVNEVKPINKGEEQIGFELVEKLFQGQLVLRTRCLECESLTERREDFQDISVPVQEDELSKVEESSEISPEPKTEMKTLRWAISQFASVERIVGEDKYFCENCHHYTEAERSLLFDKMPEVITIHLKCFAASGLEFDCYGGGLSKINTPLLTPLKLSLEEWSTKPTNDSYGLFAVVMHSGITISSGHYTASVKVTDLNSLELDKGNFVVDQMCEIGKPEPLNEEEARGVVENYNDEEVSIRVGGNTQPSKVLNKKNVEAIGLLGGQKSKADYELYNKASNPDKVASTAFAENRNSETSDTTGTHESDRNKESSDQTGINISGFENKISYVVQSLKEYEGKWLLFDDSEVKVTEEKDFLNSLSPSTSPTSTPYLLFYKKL", "experiment": "Inhibitors of USP1/UAF1: Primary Screen; further: nearly all actives have a fitted effect of over 60% in size", "details": "recombinant USP1/UAF1, Ub-Rhodamine cleavage fluorescence; activity change, negative = inhibition: at 57.1 µM (top of the series)", "procedure,_shortened": "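USP1/UAF1 complex at 1 nM was preincubated with compound for 15 min at room temperature, then Ub-Rho substrate (150nM final) was added. Fluorescence (480/540 nm) was read kinetically, 6 reads every 60 seconds.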"}
{"smiles": "COc1ccc(S(=O)(=O)/N=C2\\C=C(NS(=O)(=O)c3ccccc3)C(=O)c3ccccc32)cc1", "Potency": "active: 15.8 µM"}
{"smiles": "CC[C@H]1C/C=C\\Cc2ccccc2[C@H](C(=O)C[C@@H](O)CC(C)=O)OC1=O", "activity change, negative = inhibition": "inactive: -17%"}
{"smiles": "Cc1ccc(NS(=O)(=O)c2ccc3c(c2)n(C)c(=O)n3C)c(C)c1", "activity change, negative = inhibition": "inactive: -13.7%"}
{"smiles": "COc1ccc(NC(=O)c2ccco2)cc1NC(=O)c1ccccc1[N+](=O)[O-]", "activity change, negative = inhibition": "inactive: 0.904%"}
{"smiles": "CCOc1ccc(NC(=O)/C(C#N)=C/c2ccc(N3CCCC3)c(C)c2)cc1", "activity change, negative = inhibition": "inactive: -24.7%"}
{"smiles": "Cc1cccc2c(N=Nc3ccccc3)c(O)[nH]c12", "activity change, negative = inhibition": "inactive: 120%"}
{"smiles": "Cc1ccc(C(=O)N/C(=C/C=C/c2ccccc2)C(=O)NCc2ccco2)cc1", "activity change, negative = inhibition": "inactive: -6.26%"}
{"smiles": "N#Cc1ccc(-c2cccnc2)nc1SCC(=O)c1ccccc1", "activity change, negative = inhibition": "inactive: 92.3%"}
{"smiles": "COc1cc2c3nnc(-c4ccc(F)cc4)c-3cn(Cc3cccc(C)c3)c2cc1OC", "Potency": "active: 31.6 µM"}
{"smiles": "C=CC[C@@H](CC(=O)OC(C)(C)C)C(=O)OC[C@@H]1CCCN1C(=O)[C@H](CC=C)CC(=O)NCCO", "activity change, negative = inhibition": "inactive: -22.2%"}
{"smiles": "CC(=O)N1CCCc2cc(S(=O)(=O)N3CCCC(C(=O)N4CCN(c5cc(C)ccc5C)CC4)C3)ccc21", "note": "(configuration not stated)", "activity change, negative = inhibition": "inactive: -19.9%"}
{"smiles": "NC1=CC(=O)C(=O)c2ccccc21", "Potency": "active: 15.8 µM"}
{"smiles": "CCOC(=O)c1nn(-c2ccccc2)c(=O)c2c(N)scc12", "Potency": "active: 17.8 µM"}
{"smiles": "O=[N+]([O-])c1ccc(C=Nc2ccc(Cl)cc2Cl)s1", "Potency": "active: 28.2 µM"}
{"smiles": "C=CC[C@@H](CC(=O)N[C@H](CO)Cc1ccccc1)C(=O)N[C@H](C)COC(=O)[C@@H](CC=C)CC(=O)OC(C)(C)C", "activity change, negative = inhibition": "inactive: -21.4%"}
{"smiles": "CC(C)(C)OC(=O)C[C@H]1C/C=C\\C[C@@H](CC(=O)N[C@H](CO)Cc2ccccc2)C(=O)NC[C@H](c2ccccc2)OC1=O", "activity change, negative = inhibition": "inactive: -18.8%"}
{"smiles": "COc1ccc(Cn2c(CCC(=O)Nc3ccccc3OC)nc3cccnc32)cc1", "activity change, negative = inhibition": "inactive: -17.1%"}
{"smiles": "Cc1cc(C)c(/C=C2\\C(=O)Nc3ccccc32)[nH]1", "Potency": "active: 25.1 µM"}
{"smiles": "C[C@@H](NC(=O)c1ncn2c1c(=O)[nH]c1ccc(Br)cc12)c1ccccc1", "activity change, negative = inhibition": "inactive: -12.5%"}
{"smiles": "O=C(O)/C(=C\\c1ccc(Cl)c([N+](=O)[O-])c1)c1ccc(S(=O)(=O)N2CCCCC2)s1", "activity change, negative = inhibition": "inactive: -9.42%"}
{"smiles": "O=S(=O)(NCC(Nc1ccc(Cl)cc1)c1ccccc1)c1ccccc1", "note": "(configuration not stated)", "activity change, negative = inhibition": "inactive: -22.5%"}
{"smiles": "OCC[C@H]1C[C@@H](O)[C@H](O)[C@@]2(OCc3ccccc32)O1", "activity change, negative = inhibition": "inactive: 6.71%"}
{"smiles": "CCN(CC)c1ccc(/C=C/C(=O)c2ccc(Br)cc2)cc1", "Potency": "active: 28.2 µM"}
{"smiles": "Cc1ccccc1Cn1cccc1/C=C1/C(=N)N2C=CSC2=NC1=O", "activity change, negative = inhibition": "inactive: 31.6%"}
{"smiles": "C[C@@H]1CN([C@@H](C)CO)C(=O)CCCn2nncc2CO[C@H]1CN(C)Cc1cccc(C(F)(F)F)c1", "activity change, negative = inhibition": "inactive: -20.5%"}
{"smiles": "COc1ccc(NC(=O)CCn2c(=O)c3cccn3c3ccccc32)c(OC)c1", "activity change, negative = inhibition": "inactive: -26.4%"}
{"smiles": "O=C(O)CSc1cc(NS(=O)(=O)c2ccc(Cl)cc2)c2ccccc2c1O", "Potency": "active: 25.1 µM"}
{"smiles": "CC(C)(C)OC(=O)C[C@@H]1C/C=C\\C[C@@H](CC(=O)N(CCO)Cc2ccccc2)C(=O)N[C@H](Cc2ccccc2)COC1=O", "activity change, negative = inhibition": "inactive: -16.8%"}
{"smiles": "O=C(CN1C(=O)COc2ccc(S(=O)(=O)N3CCCCC3)cc21)NCc1ccc(Cl)cc1", "activity change, negative = inhibition": "inactive: -27%"}
{"smiles": "O=C(COCc1cc(-c2ccc3c(c2)OCO3)on1)N1CCN(c2ccccc2)CC1", "activity change, negative = inhibition": "inactive: -8.96%"}
{"smiles": "N#C/C(=C/c1ccc(N2CCOCC2)o1)c1ccc(Cl)cc1", "Potency": "active: 28.2 µM"}
{"smiles": "Cc1ccccc1/C=C/c1nc2ccccc2c(=O)n1Cc1ccccc1", "activity change, negative = inhibition": "inactive: -7.49%"}
{"smiles": "Nc1ccc(/C=C/C(=O)c2cccs2)cc1", "Potency": "active: 25.1 µM"}
{"smiles": "Cc1ccccc1CN(C)C[C@H]1OCc2cnnn2CCCC(=O)N([C@@H](C)CO)C[C@@H]1C", "activity change, negative = inhibition": "inactive: -12.8%"}
{"smiles": "CCO[C@H]1OC(C(=O)N2CCN(Cc3ccccc3)CC2)=C[C@@H](c2ccc(C(F)(F)F)cc2)[C@@H]1CCCO", "activity change, negative = inhibition": "inactive: 5.77%"}
{"smiles": "C[C@H](CO)N1C[C@H](C)[C@@H](CN(C)S(=O)(=O)c2ccc(Cl)cc2)OCc2cnnn2CCCC1=O", "activity change, negative = inhibition": "inactive: -19.2%"}
{"smiles": "O=C(NN1C(=O)/C(=C\\c2ccc(O)c([N+](=O)[O-])c2)SC1=S)c1ccccc1Cl", "activity change, negative = inhibition": "inactive: -17.7%"}
{"smiles": "CCO[C@H]1OC(C(=O)Nc2ccccc2)=C[C@@H](c2ccc(C(F)(F)F)cc2)[C@@H]1CCCO", "activity change, negative = inhibition": "inactive: -28.4%"}
{"smiles": "CCCCNC1=CC(=O)C(=O)c2ccccc21", "Potency": "active: 25.1 µM"}
{"smiles": "O=C1CCN2C=Nc3cccc4ccc1c2c34", "Potency": "active: 28.2 µM"}
{"smiles": "Cc1ccc2nc3sc(C(=O)NCc4ccco4)c(N)c3cc2c1", "activity change, negative = inhibition": "inactive: 367%"}
{"smiles": "Cc1ccc(NC(=O)c2sc3nc4c(c(-c5ccco5)c3c2N)CCC4)cc1", "activity change, negative = inhibition": "inactive: 249%"}
{"smiles": "O=C(NCCS(=O)(=O)N1CCN(c2ccc(F)cc2)CC1)C1CC(=O)N(c2ccccc2)C1", "note": "(configuration not stated)", "activity change, negative = inhibition": "inactive: -22.8%"}
{"smiles": "CC(C)OC(=O)N(C)C[C@@H]1OCc2cnnn2CCCC(=O)N([C@H](C)CO)C[C@H]1C", "activity change, negative = inhibition": "inactive: 1.75%"}
{"smiles": "CCOC(=O)Cn1c(=O)oc2cc(S(=O)(=O)NC(C)c3ccccc3)ccc21", "note": "(configuration not stated)", "activity change, negative = inhibition": "inactive: -11.2%"}
{"smiles": "C/C(Sc1nnc(Cc2ccccc2)o1)=C(/O)c1ccccc1", "activity change, negative = inhibition": "inactive: 8.97%"}
{"smiles": "COc1ccc(/C=C2\\CCCC(C(=O)C(F)(F)F)=C2O)cc1", "activity change, negative = inhibition": "inactive: 113%"}
{"smiles": "C/C(=N\\Nc1ccc([N+](=O)[O-])cc1)c1ccc(-n2nncc2C)cc1", "activity change, negative = inhibition": "inactive: 74.9%"}
{"smiles": "O=C(NCCCN1CCN(c2ccccc2)CC1)c1sc2ncccc2c1-n1cccc1", "activity change, negative = inhibition": "inactive: 2.2%"}
{"smiles": "CN(C)CCC[C@]1(c2ccc(F)cc2)OCc2cc(C#N)ccc21", "activity change, negative = inhibition": "inactive: -11.2%"}
{"smiles": "Cc1cc(/C=C2/NC(=O)NC2=O)c(C)n1-c1ccc(N2CCOCC2)cc1", "activity change, negative = inhibition": "inactive: -2.39%"}
{"smiles": "C[C@H](CO)N1C[C@H](C)[C@@H](CN(C)S(=O)(=O)c2cn(C)cn2)Oc2c(NS(=O)(=O)c3ccc(F)cc3)cccc2C1=O", "activity change, negative = inhibition": "inactive: 3.26%"}
{"smiles": "NC(=O)N1c2ccccc2C=Cc2ccccc21", "activity change, negative = inhibition": "inactive: -7.6%"}
{"smiles": "COC(=O)c1cc(NC(=O)c2ccccc2)c(=O)oc1/C=C/Nc1ccc(Oc2ccccc2)cc1", "activity change, negative = inhibition": "inactive: 306%"}
{"smiles": "CN(C)c1ccc(C=C2SC(=S)N(Cc3ccco3)C2=O)cc1", "activity change, negative = inhibition": "inactive: 207%"}
{"smiles": "C=CC[C@@H](CC(=O)N(CCO)Cc1ccccc1)C(=O)N[C@@H](COC(=O)[C@@H](CC=C)CC(=O)OC(C)(C)C)Cc1c[nH]c2ccccc12", "activity change, negative = inhibition": "inactive: -18.3%"}
{"smiles": "CC(Cc1ccccc1)Nc1ncnc2c1ncn2C1OC(CO)C(O)C1O", "note": "(configuration not stated)", "activity change, negative = inhibition": "inactive: -21.2%"}
